# Experimental data as given in PubChem BioAssay (NCATS).
# Several values for one entry are separate records, joined by “and”; a condition that tells them apart may be missing. Identical values can stand only once. This is one part of the list. Shown are side measurements of this screen, not its main read-out; they come without a call. For some of these results: Most of these compounds were active or inconclusive in the main read-out, so they are no random draw. For some of these results: Words in brackets tell the shape of the fitted curve; partial curves, single points and poor fits give uncertain potencies.
# Tests used:
# [1] = qHTS Assay for Lipid Storage Modulators (AID 1519); details: Drosophila S3 cells, BODIPY lipid droplet/cell ratio, laser cytometry, cells loaded with oleic acid
# Outline: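 Cells seeded at 5,000 per well were treated with compounds over a concentration series and loaded with oleic acid (400 uM, as added). Lipid droplet fluorescence (488 nm excitation, 500-530 nm channel) was read by laser-scanning cytometry and normalized to 20 uM Triacsin C.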
# [2] = qHTS assay for small molecule antagonists of peroxisome proliferator-activated receptor delta signaling (AID 588535); details: HEK293T PPARd-UAS-bla, beta-lactamase FRET ratio, 18 h; 460 nm channel;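 also: cells co-treated with a PPAR-delta agonist as stimulator during compound exposure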
# Outline: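 Reporter: UAS-bla under PPAR-delta response element, HEK293T host. Medium: 2% charcoal/dextran FBS. Dosing: titration, 18 hrs, 37 C. Detection: CCF4, 2 hrs RT, 405 ex/460 and 530 em.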
# [3] = qHTS assay for small molecule antagonists of peroxisome proliferator-activated receptor gamma signaling (AID 588537); details: HEK293 PPARg-UAS-bla, beta-lactamase ratio, antagonist mode; measured here: W460 blue channel
# Outline: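 We seeded GeneBLAzer HEK293 reporter cells at 3000 per well, allowed 6-6.5 h attachment at 37 C, then co-treated with test compound titrations and 50 nM rosiglitazone overnight (16 h). Inhibition was quantified from 460/530 nm emission ratios.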
# [4] = qHTS assay for small molecule antagonists of vitamin D receptor signaling (AID 588541); details: HEK293T VDR-UAS-bla, beta-lactamase ratio, antagonist mode; measured here: W460 blue channel (cell viability)
# [5] = qHTS assay for small molecule antagonists of retinoid X receptor alpha signaling (AID 588546); details: HEK293T RXRa-UAS-bla, beta-lactamase ratio, antagonist mode; measured here: W530 green channel, cytotoxicity proxy;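 also: cells stimulated with 9-cis-retinoic acid as agonist; % is scaled to controls: 0 for no effect and ±100 for the full control effect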
# Outline: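 Beta-lactamase reporter inhibition, read as CCF4 fluorescence ratio (ex 405, em 460/530 nm) after 2 h at RT. HEK293T UAS-bla cells, 2500/well, were stimulated with 9-cis-RA at 500 or 100 nM final alongside test compound for 18 h at 37 C.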
# [6] = qHTS drug screen for cell cycle checkpoint inhibitors in PARPi-resistant BRCA-mutant ovarian cancer cell lines. (AID 1963452); details: PEO1/OlaR viability, CellTiter-Glo luminescence, 96 h
# Outline: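 PEO1, PEO4 and PEO1/OlaR ovarian cancer cells, 600 per well, exposed 96 h at 37C to a dilution series. Viability read by CellTiter-Glo luminescence, normalized to DMSO and empty wells; activity summarized as Z-AUC.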
# [7] = qHTS Assay for Modulators of Human Peripheral Myelin Protein 22 (PMP22) Expression/Activity (AID 1967); details: Cell-based PMP22 reporter, dual-color luciferase ratio
# Outline: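 Luminescence ratio of Pmp22 promoter-driven green luciferase to EF-alpha-driven red luciferase, in engineered mouse MSC80 Schwann cells, served as read-out. Compounds were incubated 24h; untreated cells defined 0% Activity; curves were classified by r2, magnitude and activity.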
# [8] = molecular target: Histamine N-methyltransferase (Homo sapiens) (UniProt P50135); experiment: Confirmatory Screen for Target Class Profiling of Small Molecule Inhibitors of Methyltransferases (AID 1745852); details: MTase-Glo luminescence, SAH detection, recombinant enzyme; measured here: HNMT inhibition potency;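 also: inhibitor potency for blocking SAH production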
# UniProt P50135, sequence (P50135 whole entry, looked up): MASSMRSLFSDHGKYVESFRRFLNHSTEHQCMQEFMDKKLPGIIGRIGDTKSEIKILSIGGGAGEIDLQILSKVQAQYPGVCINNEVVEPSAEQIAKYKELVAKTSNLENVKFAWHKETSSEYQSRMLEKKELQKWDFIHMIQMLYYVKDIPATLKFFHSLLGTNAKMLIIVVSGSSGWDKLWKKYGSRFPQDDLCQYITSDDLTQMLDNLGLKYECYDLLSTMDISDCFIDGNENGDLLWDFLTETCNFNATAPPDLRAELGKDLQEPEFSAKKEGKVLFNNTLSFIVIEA
# [9] = molecular target: Catechol O-methyltransferase (Homo sapiens) (UniProt P21964); experiment: as above; details: MTase-Glo luminescence, SAH detection, recombinant enzyme; measured here: COMT inhibition potency
# UniProt P21964, sequence (P21964 whole entry, looked up): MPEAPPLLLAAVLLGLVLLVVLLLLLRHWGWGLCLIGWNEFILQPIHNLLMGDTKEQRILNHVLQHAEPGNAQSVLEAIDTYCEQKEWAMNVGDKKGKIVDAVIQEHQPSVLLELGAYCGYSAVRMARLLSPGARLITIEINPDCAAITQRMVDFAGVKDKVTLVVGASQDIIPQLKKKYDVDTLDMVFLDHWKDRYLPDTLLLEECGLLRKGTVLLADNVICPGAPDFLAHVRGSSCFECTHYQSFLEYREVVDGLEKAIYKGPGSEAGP
# [10] = qHTS for identification of novel therapeutic agents for treatment of microphthalmiaassociated transcription factor (MiT) renal cell carcinoma (RCC) (AID 1963991); details: CellTiter-Glo, 48 h; for z-score: stronger effect = lower value
# Outline: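 Curves over 11 concentrations were fitted to CellTiter-Glo luminescence, scaled between empty wells (0%) and DMSO (100%) viability. Cells were UOK109, UOK124 and UOK145 TFE3-fusion RCC lines at 500/well, exposed 48 hours at 37 C.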
# [11] = NCATS anti-infectives library activity on the primary C. elegans qHTS viability assay (AID 1745855); details: C. elegans worm area imaging, day 7; measured here: worm number, day 3
# Outline: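 Viability read-out is GFP fluorescence of PE254-GFP-FLuc C. elegans, measured by laser cytometry (488 nm) at day 0, 3 and 7. Ten L1 worms per well were incubated 7 days at 21 °C with compounds and bacterial capsules in S medium.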
# [12] = qHTS assay for small molecule agonists of retinoid X receptor alpha signaling (AID 588544); details: HEK293T RXRa-UAS-bla, beta-lactamase reporter, 18 h; 530 nm emission
# [13] = qHTS Assay for Inhibitors of PDE-IV (AID 607); details: HEK293 ACTOne CNG channel cells, membrane potential fluorescence; measured here: parental cell counter-screen;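 also: parental cells stimulated with forskolin 10 µM plus RO 20-1724 100 µM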
# Outline: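 Cell-based read-out of cAMP via a modified cyclic nucleotide-gated channel and membrane potential dye (535/590 nm) in HEK293 cells expressing PDE4 endogenously. Compounds tested up to 22.9 uM final; 100 uM RO 20-1724 reference.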
# [14] = qHTS Validation Assay to Find Inhibitors of Chronic Active B-Cell Receptor Signaling (AID 485345); details: ABC-DLBCL cells, chronic BCR signaling reporter
# Outline: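 TMD8 ABC-DLBCL cells with dox-inducible green luciferase–IκBα fusion and red native luciferase; compounds 46 uM–3 nM, 4 h at 37C with doxycycline in 0.5% FBS IMDM. Green/red ratio normalized to basal and 10 uM MG-132.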
# [15] = molecular target: Nicotinamide N-methyltransferase (Homo sapiens) (UniProt P40261); experiment: Confirmatory Screen for Target Class Profiling of Small Molecule Inhibitors of Methyltransferases (AID 1745852); details: MTase-Glo luminescence, SAH detection, recombinant enzyme; measured here: NNMT inhibition potency;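 also: inhibitor potency for blocking SAH production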
# UniProt P40261, sequence (P40261 whole entry, looked up): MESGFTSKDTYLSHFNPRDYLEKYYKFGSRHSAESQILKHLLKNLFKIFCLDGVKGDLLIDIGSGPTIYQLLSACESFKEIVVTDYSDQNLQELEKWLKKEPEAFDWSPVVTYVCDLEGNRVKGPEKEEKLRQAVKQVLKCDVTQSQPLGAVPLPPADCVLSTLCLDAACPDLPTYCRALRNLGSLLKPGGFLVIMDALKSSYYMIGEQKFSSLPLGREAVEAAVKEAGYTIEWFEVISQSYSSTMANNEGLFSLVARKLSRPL
# [16] = measured here: cell count channel max response
# [17] = measured here: cell number channel AC50
# [18] = measured here: lipid (BODIPY) channel AC50
# [19] = measured here: lipid channel max response
# [20] = measured here: PEO1 parental viability
# [21] = measured here: red reporter channel AC50, EF-alpha promoter control reporter in MSC80 mouse Schwann cells
# [22] = TFE3-RCC UOK109 viability, measured here: UOK109 Z-AUC
# [23] = TFE3-RCC viability, measured here: UOK124 Z-AUC
# [24] = TFE3-RCC viability, measured here: UOK145 Z-AUC
# [25] = TFE3-RCC viability, measured here: UOK145 cell viability
# Tags tell the direction and shape of the fitted curve.
smiles,measurement,setting,value
C[C@H]1O[C@@H](O[C@H]2[C@@H](O)C[C@H](O[C@H]3[C@@H](O)C[C@H](O[C@H]4CC[C@@]5(C)[C@H](CC[C@@H]6[C@@H]5C[C@@H](O)[C@]5(C)[C@@H](C7=CC(=O)OC7)CC[C@]65O)C4)O[C@@H]3C)O[C@@H]2C)C[C@H](O)[C@@H]1O,max response,[1]; [16],72.3%
same,AC50,[1]; [17],"10 µM [rising, partial curve, poor fit]"
same,AC50,[1]; [18],"11.2 µM [rising, partial curve, poor fit]"
same,max response,[1]; [19],83.6%
same,max response,[2],-90.3% and -95.4%
same,AC50,[3],"3.98 µM [falling, full curve] and 35.5 µM [falling, partial curve, poor fit]"
same,AC50,[4],"100 nM [falling, full curve] and 1.41 µM [falling, full curve]"
same,max response,[5],42.4% and 52.4%
same,AC50,[6]; [20],"245 nM [falling, full curve]"
same,AC50,[6]; measured here: PEO4 viability,"97.7 nM [falling, full curve]"
CC1CCN=C(N)S1 (configuration not stated),max response,[1]; [16],11.7%
same,AC50,[1]; [17],"7.94 µM [falling, partial curve, poor fit]"
same,AC50,[1]; [18],"7.94 µM [falling, partial curve, poor fit]"
same,max response,[1]; [19],11.5%
same,AC50,[7]; [21],"19 µM [rising, single point]"
same,IC50,[8],"17.2 µM [falling, partial curve, poor fit]"
COc1cc(/C=C/C(=O)CC(=O)/C=C/c2ccc(O)c(OC)c2)ccc1O,max response,[1]; [16],2.09%
same,AC50,[1]; [17],"1.41 µM [rising, full curve]"
same,AC50,[1]; [18],"1.58 µM [rising, full curve]"
same,max response,[1]; [19],-41.3%
same,max response,[2],57.9%
same,AC50,[3],"44.7 µM [rising, single point]"
same,IC50,[9],"21.7 µM [falling, partial curve]"
O=c1cc(-c2ccccc2)oc2cc(O)c(O)c(O)c12,max response,[1]; [16],81.4% and 109%
same,AC50,[1]; [17],"12.6 µM [rising, full curve] and 15.8 µM [rising, partial curve, poor fit]"
same,AC50,[1]; [18],"14.1 µM [rising, full curve] and 25.1 µM [rising, partial curve, poor fit]"
same,max response,[1]; [19],126% and 142%
same,z-score,[10]; [22],0.589
same,z-score,[10]; [23],0.806
same,z-score,[10]; [24],0.943
O=c1ccc2cc3ccoc3cc2o1,max response,[1]; [16],138%
same,AC50,[1]; [17],"8.91 µM [rising, partial curve]"
same,AC50,[1]; [18],"14.1 µM [rising, partial curve]"
same,max response,[1]; [19],182%
same,AC50,[11],"4.09 µM [falling, partial curve, poor fit]"
COc1c2occc2cc2ccc(=O)oc12,max response,[1]; [16],27.7% and 129%
same,AC50,[1]; [17],"1.41 µM [rising, full curve]"
same,AC50,[1]; [18],"4.47 µM [rising, partial curve, poor fit] and 1 µM [rising, full curve]"
same,max response,[1]; [19],54.7% and 168%
same,max response,[2],48.6%
same,max response,[12],3.61%
same,AC50,[6]; measured here: PEO4 viability,"24500 nM [rising, single point]"
CC(C)c1ccc(Cn2ccc3c4c(N)nc(NC5CC5)nc4ccc32)cc1,max response,[1]; [16],56.6%
same,AC50,[1]; [17],"3.16 µM [rising, full curve]"
same,AC50,[1]; [18],"3.55 µM [rising, full curve]"
same,max response,[1]; [19],45.1%
same,AC50,[6]; [20],"245 nM [falling, full curve, poor fit]"
same,AC50,[6]; measured here: PEO4 viability,"155 nM [falling, full curve]"
same,z-score,[10]; [22],-0.134
same,z-score,[10]; [23],-0.884
same,AC50,"[10]; TFE3-RCC viability, measured here: UOK124 cell viability","5.26 µM [falling, full curve]"
same,z-score,[10]; [24],-0.385
same,AC50,[10]; [25],"13.2 µM [falling, partial curve]"
CC(C)NCC(O)c1ccc(NS(C)(=O)=O)cc1 (configuration not stated),max response,[1]; [16],4.01%
same,AC50,[1]; [17],"0.112 µM [falling, full curve, poor fit]"
same,AC50,[1]; [18],"0.112 µM [falling, full curve, poor fit]"
same,max response,[1]; [19],2.95%
same,z-score,[10]; [22],0.57
same,z-score,[10]; [23],0.521
same,z-score,[10]; [24],1.77
same,AC50,[10]; [25],"13.2 µM [falling, partial curve, poor fit]"
c1ccc2[nH]c(-c3cscn3)nc2c1,max response,[1]; [16],39.2%
same,AC50,[1]; [17],"17.8 µM [rising, partial curve, poor fit]"
same,AC50,[1]; [18],"25.1 µM [rising, partial curve]"
same,max response,[1]; [19],70.7%
same,max response,[2],2.06%
same,AC50,[3],"50.1 µM [rising, single point]"
same,AC50,[6]; [20],"69.2 nM [falling, full curve, poor fit]"
CCCc1c(-c2ccc(O)cc2)nn(-c2ccc(O)cc2)c1-c1ccc(O)cc1,AC50,[13],"15.8 µM [rising, single point]"
same,max response,[1]; [16],98.5% and -21.8%
same,AC50,[1]; [17],"0.355 µM [falling, full curve, poor fit]"
same,AC50,[1]; [18],"0.355 µM [falling, full curve, poor fit]"
same,max response,[1]; [19],126% and -20.3%
same,AC50,"[7]; measured here: green reporter channel AC50, mouse Pmp22 promoter in mouse Schwann cells","53.6 µM [falling, partial curve]"
same,AC50,[7]; [21],"42.6 µM [falling, partial curve]"
same,AC50,[14]; measured here: CBG/CBR ratio read-out,"16.4 µM [falling, partial curve]"
same,AC50,[14]; measured here: CBR control luciferase (viability counter),"16.4 µM [falling, single point]"
same,max response,[2],84.5%
same,AC50,[3],"31.6 µM [falling, partial curve, poor fit]"
same,max response,[12],-29.2%
same,max response,[5],-48.4%
same,IC50,[15],"27.3 µM [falling, partial curve]"
